Entries after “also recorded” stand apart in the source; their conditions may differ.
B1: 21D4.D1: anti-TREM2 antibody clone; VH SEQ ID NO:15, VL SEQ ID NO:26 (antibody, V domains shown)
VH: QVQLQQSGADLLRPGVSVKISCKGSGYTFTDHAMHWVKQSHAESLEWIGVISTYSGDTGYNQKFKGKATMTVDKSSSTAYLELARLTSEDSAIYYCAREGHYDDAMDYWGQGTSVTVSS
VL: DVVMTQTPLTLSVTIGQPASFSCKSSQSLLDSDGKTYLNWLLRRPGQSPKRLIYVVSKLDSGVPDRFTGSGSGTDFTLKISRVEAEDLGVYYCWQGTHFPYTFGGGTKLEIK
B2: 51D4: anti-TREM2 antibody clone; VH SEQ ID NO:314, VL SEQ ID NO:318 (antibody, V domains shown)
VH: QVHLQQSGPEVVRPGVSVKISCKGSGYTFTDYGMHWVKQSHAKSLEWIGVISTYNGNTSYNQKYKGKATVTVDKPSSTAYMELVRLTSEDSAIYYCARDFGYVPFDYWGQGTTLTVSS
VL: DVVMTQTPLTLSVTIGQPASISCKSSQSLLDSDGKTYLNWLLQRPGQSPKRLIYLVSYLDSGVPDRFTGSGSGTDFTLKISRVEADDLGVYYCWQGTHFPYTFGGGTKLEIK

Key:
TREM2 [1] = molecular target: T1, TREM2 (Homo sapiens, UniProt Q9NZC2); test: TREM2 PAM/pSyk assay on human macrophages; assay type: cell-based
T1 construct: macrophage cells that endogenously express TREM2; endogenous in cells; host or cells: primary human monocyte-derived macrophages from donor blood
T1 sequence (Q9NZC2 19-230): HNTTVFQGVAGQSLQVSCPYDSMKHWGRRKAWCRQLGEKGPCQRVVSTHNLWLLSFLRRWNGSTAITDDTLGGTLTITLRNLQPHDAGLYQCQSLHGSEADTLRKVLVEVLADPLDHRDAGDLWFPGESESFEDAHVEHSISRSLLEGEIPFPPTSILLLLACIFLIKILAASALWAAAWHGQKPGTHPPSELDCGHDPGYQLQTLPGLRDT
Protocol: (§1) Human macrophages were differentiated from donor blood using a human monocyte enrichment cocktail (Stem Cell Technologies) and culturing monocytes with human mCSF for five days in macrophage media (RPMI+10% Hyclone FBS+Glutamax+Pen/Strep+non-essential amino acids+sodium pyruvate). On the fifth day, the human macrophages were scraped from the flasks and were re-plated at 100,000 cells/well on a 96-well poly-D-lysine-coated plate in the macrophage media (without mCSF). The cells were incubated for 24 hours to adhere, then the media was removed.
Antibodies pre-mixed with lipid vesicles comprised of 70% DOPC and 30% POPS (made according to the procedure for making vesicles described above) diluted in HBSS were immediately added to the cells, and allowed to incubate for 5 minutes at 37° C. The liposome/antibody solution was removed, and 35 μL lysis buffer (Cell Signaling Technologies, CST) was added using the liquid handler. The lysate was then incubated at 4° C. for 30 minutes, then either frozen at −80° C. or immediately carried forward to a pSyk AlphaLISA assay as described above. […] The results of the assay are shown in FIG. 9B and in Table 8 below.

TREM2 [2] = molecular target: T2, TREM2 (Homo sapiens, UniProt Q9NZC2); test: PAM and single point pSyk screen, HEK293 TREM2/DAP12 cells, antibody with or without PS/PC liposomes; assay type: cell-based; conditions: for p-Syk induction by antibody alone (in words): no liposomes, HEK293 TREM2/DAP12
T2 construct: expressed in transfected cells
Protocol: Two days in advance of the experiment, HEK293 cells stably overexpressing TREM2 and DAP12 were plated at 40,000 cells/well on a 96 well poly-D-lysine-coated plate. In PAM experiments utilizing lipid vesicles, the lipid vesicles (see protocol below) were then mixed with the antibodies (at a constant concentration) on a 96-well plate using a Hamilton Nimbus liquid handler at a liposome concentration of 0, liposome EC20, EC50, or EC80 (see below) in PBS. In agonist experiments alone (no liposomes), antibodies were diluted without liposomes in PBS. The cells were washed 3× with HBSS with a Biotek 405/406 plate washer, then 50 μL of the liposome/antibody mixture was added per well using a Hamilton Nimbus liquid handler. The cell plate containing the liposome/antibodies was then transferred to a 37° C. incubator for 5 minutes. The liposome/antibody solution was removed by flicking the plate, and 40 μL lysis buffer (Cell Signaling Technologies, CST) was added using the liquid handler. The lysate was incubated at 4° C. for 30 minutes, then either frozen at −80° C. or immediately carried forward to the alpha-LISA assay as described above.
Two days in advance of the experiment, HEK293 cells stably overexpressing TREM2 and DAP12 were plated at 40,000 cells/well on a 96 well poly-D-lysine-coated plate. The lipid vesicles (see protocol below) were then mixed with the antibodies on a 96-well plate using a Hamilton Nimbus liquid handler at a concentration of 0, EC20, EC50, or EC80 (see below). The cells were washed 3× with HBSS with a Biotek 405/406 plate washer, then 50 μL of the liposome/antibody mixture was added per well using a Hamilton Nimbus liquid handler. […]
The liposomes were diluted in HBSS, and 50 μL of liposome solution was added per well to TREM2/DAP12-overexpressing cells using the Hamilton Nimbus liquid handler as in the above protocol. […] The pSyk response was measured as described above from 10 μL lysate, and the curve fit using a non-linear regression (4 parameter dose response) fit in Prism.

TREM2 [3] = molecular target: T2, TREM2; test: FACS binning on human TREM2-HEK cells (competition with R&D antibody); assay type: binding; conditions: epitope bin, 100 nM antibody
Protocol: HEK293 overexpressing human TREM2 (H6) were harvested by 0.05% trypsin and incubated at 37° C. incubator for 2 hours for surface TREM2 recovery. After incubation, cells were washed with 1×PBS and FACS buffer (PBS+0.5% BSA) with human Trustain FcX solution (Biolegend, Cat #422302) was added at a density of 10^6/mL. Cells were seeded at 100,000 cells per well in a 96-well round-bottom and incubated 20 minutes at room temperature. After incubation, anti-TREM2 antibodies (100 nM) were added to the cells and the cells were incubated for 45 minutes on ice. After incubation, rat anti-h/mTREM2-APC antibody (1:100, R&D, Cat # FAB17291A) was added to the cells, and the cells were incubated for 30 minutes on ice. After incubation, cells were washed with FACS buffer three times and resuspended in 10 μL FACS buffer, then analyzed by flow cytometry (BD FACSCanto II, San Jose, Calif.). 20,000 events were obtained for each sample. The ability to compete with R&D antibody was determined by MFI analysis compared to isotype or buffer control wells.

soluble TREM2 (sTREM2) = molecular target: T3, soluble TREM2 (sTREM2) (Homo sapiens, UniProt Q9NZC2); test: Soluble TREM2 (TREM2 shedding) assay in HEK293 TREM2/DAP12 cells; assay type: cell-based; design: key to STREM2: NC = no change; −− = reduced sTREM2; ++ = increased sTREM2
T3 construct: expressed in transfected cells
T3 sequence (O43914 22-113 partner, one chain of several): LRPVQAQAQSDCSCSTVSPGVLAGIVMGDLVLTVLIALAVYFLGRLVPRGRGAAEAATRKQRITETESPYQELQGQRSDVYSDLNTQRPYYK
Protocol: HEK293 cells stably expressing human TREM2 and DAP12 were plated onto 96-well plates pre-coated with poly-D-lysine 4-16 hours prior to antibody treatment. Antibody supernatants or control antibodies were diluted into fresh complete media and added onto cells in triplicate. Cells were incubated with antibody containing media for 18 hours prior to removal of the cell supernatant for assay by TREM2 ELISA. Samples and standards were diluted 1:10 into blocking buffer (3% BSA/TBST) in the assay plate. Briefly, MSD small spot streptavidin plates were coated with biotinylated anti-hTREM2 polyclonal antibody (R&D Systems) overnight at 4° C. or 1 hour at room temperature. Plates were then blocked overnight at 4° C., or 1 hour at room temperature, with blocking buffer, 3% BSA/TBST. Plates were washed three times with TBST in a Biotek plate washer (used for all washes) prior to addition of diluent (blocking buffer) and denatured supernatants from cell culture. A TREM2-His protein diluted in 3% BSA/TBST was used as a standard for absolute quantification. Following 1 hour incubation at room temperature, plates were washed with TBST. […] After washing with TBST, MSD plates were developed using 2×MSD read buffer T, followed by detection using an MSD Sector plate reader. MSD values were converted to absolute quantities of sTREM2 by fitting a standard curve using Prism 7.0 software (Graphpad). […]

hTREM2 = molecular target: T4, hTREM2 (Homo sapiens, UniProt Q9NZC2); test: Octet binning (competition with R&D antibody on biotinylated TREM2-His); assay type: binding; conditions: epitope bin, 100 nM
T4 construct: The ecto domain (residues 19-172) of TREM2 (UniProtKB—Q9NZC2); secretion signal of mouse Ig kappa chain V-III (P01661 aa 1-20) (N); made in house; host or cells: Expi293F
T4 sequence (Q9NZC2 19-172): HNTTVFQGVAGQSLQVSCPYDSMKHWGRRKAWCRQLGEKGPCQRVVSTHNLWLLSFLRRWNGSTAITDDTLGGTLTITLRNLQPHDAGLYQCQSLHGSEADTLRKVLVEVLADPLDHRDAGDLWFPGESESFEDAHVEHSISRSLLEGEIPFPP
Protocol: Competition with R&D antibody was done by Octet Red using biotinylated human Trem2-His protein generated in house. Biotinylated human TREM2-His protein was captured on a streptavidin tip, and the tip was then incubated in either 100 nM of R&D Ab or buffer for 3 minutes, followed by incubation for 3 minutes in 100 nM of testing hybridoma. The difference of hybridoma binding curve with or without pre-binding to R&D antibody was analyzed to determine the epitope.

TREM2 [4] = molecular target: T2, TREM2; test: pSyk antagonist assay on HEK293 TREM2/DAP12 cells; assay type: cell-based; conditions: FIGS. 9E-9G
Protocol: These experiments were performed as follows. Two days in advance of the experiment, HEK293 cells stably overexpressing TREM2 and DAP12 were plated at 40,000 cells/well on a 96 well poly-D-lysine-coated plate. Antibodies diluted in DMEM alone were immediately added to the cells, and allowed to incubate for 30 minutes at 37° C. The antibodies were then removed. […] The liposome/antibody solution was removed, and 35 μL lysis buffer (Cell Signaling Technologies, CST) was added using the liquid handler. The lysate was then incubated at 4° C. for 30 minutes, then either frozen at −80° C. or immediately carried forward to a pSyk AlphaLISA assay as described above. The percent inhibition was calculated as in FIG. 9C.
FIGS. 9F and 9G show inhibition by 21D4 and 21D11, respectively, at increasing antibody concentrations. These experiments were performed similarly to those described in FIG. 9E.

TREM2 [5] = molecular target: T1, TREM2; test: TREM2 pSyk antagonist assay on human macrophages (antibody pre-incubation, then liposomes); assay type: cell-based; conditions: FIGS. 9C-9D, 30 nM antibody
Protocol: as §1
Antibodies diluted in RPMI alone were immediately added to the cells, and allowed to incubate for 30 minutes at 37° C. The antibodies were then removed. Lipid vesicles comprised of 70% DOPC and 30% POPS (made according to the procedure for making vesicles described above) in HBSS were added to the cells and incubated […] at 37° C. The liposome/antibody solution was removed, and 35 μL lysis buffer (Cell Signaling Technologies, CST) was added using the liquid handler. The lysate was then incubated at 4° C. for 30 minutes, then either frozen at −80° C. or immediately carried forward to a pSyk AlphaLISA assay as described above.

Molecule	effect on lipid ligand activation of TREM2 (in words) (TREM2 [1]; FIG. 9B, human macrophages)	Slope + Liposome (TREM2 [1]; pSyk, 10 nM antibody with 0, EC20, EC50, EC80 PS/PC liposomes, liposome-alone signal subtracted)	interaction with lipid ligand to activate p-Syk (in words) (TREM2 [2]; FIG. 9A, 30 nM antibody, PS/PC liposomes, HEK cells)	p-Syk induction by antibody alone (in words) (TREM2 [2])	p-Syk induction by antibody alone (in words) (TREM2 [2]; listed as 21D4)	Bin by FACS (TREM2 [3])	TREM2 shedding (in words) (soluble TREM2 (sTREM2); FIG. 4, 18 hours)	STREM2 (soluble TREM2 (sTREM2); change in sTREM2 levels)	Bin by Octet (hTREM2)	inhibition of liposome mediated pSyk (TREM2 [4])	liposome mediated pSyk signaling after antibody pre-incubation (TREM2 [5])
B1	inhibitor effect	−1.632	block lipid ligand activation of TREM2	alone induce pSyk signaling	do not induce p-Syk	1	enhances TREM2 shedding	++	1-2	antagonistic activity; also recorded: significantly reduced TREM2 activation by liposomes	–
B2	–	–	–	–	–	1-2	–	–	1-2	–	blocked

From patent US20200277373A1, “ANTI-TREM2 ANTIBODIES AND METHODS OF USE THEREOF” (Denali Therapeutics Inc., priority 2017, published 2020)
